# In all, about 33,000 sequences were measured (“E-score (-0.5 to 0.5)”: median about -0.012, highest 2% from about 0.29 on). Some of the results follow.
# Biological target: T1, Ybr033w (UniProt P38073)
# T1 sequence: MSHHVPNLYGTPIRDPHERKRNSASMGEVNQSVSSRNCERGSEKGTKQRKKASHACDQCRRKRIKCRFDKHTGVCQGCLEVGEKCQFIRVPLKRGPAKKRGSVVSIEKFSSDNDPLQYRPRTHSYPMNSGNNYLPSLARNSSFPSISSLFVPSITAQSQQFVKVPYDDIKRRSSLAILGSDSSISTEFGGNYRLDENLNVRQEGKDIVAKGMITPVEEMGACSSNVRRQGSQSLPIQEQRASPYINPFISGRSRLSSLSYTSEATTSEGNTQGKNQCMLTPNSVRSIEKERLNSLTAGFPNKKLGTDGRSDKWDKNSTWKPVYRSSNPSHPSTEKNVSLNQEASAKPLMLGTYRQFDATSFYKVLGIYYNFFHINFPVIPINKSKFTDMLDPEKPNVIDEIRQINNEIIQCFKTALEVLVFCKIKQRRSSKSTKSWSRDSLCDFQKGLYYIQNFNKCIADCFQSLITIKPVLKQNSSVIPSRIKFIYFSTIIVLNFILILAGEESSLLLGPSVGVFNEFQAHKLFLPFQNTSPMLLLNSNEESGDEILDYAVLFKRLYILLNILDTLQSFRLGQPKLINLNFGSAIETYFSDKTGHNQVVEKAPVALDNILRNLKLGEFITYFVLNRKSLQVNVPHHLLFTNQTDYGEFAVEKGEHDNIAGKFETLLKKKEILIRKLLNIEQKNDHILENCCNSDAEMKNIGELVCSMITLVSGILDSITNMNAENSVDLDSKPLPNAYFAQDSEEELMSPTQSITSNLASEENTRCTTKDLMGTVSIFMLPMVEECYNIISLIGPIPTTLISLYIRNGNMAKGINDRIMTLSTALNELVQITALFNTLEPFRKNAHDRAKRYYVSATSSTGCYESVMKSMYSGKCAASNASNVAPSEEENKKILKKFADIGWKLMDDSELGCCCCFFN
# Experiment: PBM E-score (8-mer binding enrichment) (E-score (-0.5 to 0.5)); higher = stronger / more preferred TF binding; most listed sequences are background and not binding sites
# Details: protein concentration: 200 nM; construct: GST-full length
# Outline: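 E-scores (a modified Wilcoxon-Mann-Whitney statistic) were assigned by the Universal PBM Analysis Suite to every ungapped eight-base word pooled with its reverse complement. The input came from universal all-10-mer Agilent arrays made double-stranded by primer extension and probed with GST-tagged yeast transcription factors at about 100-200 nM. Fluorescent anti-GST detected bound protein, and masliner normalised the scans.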
row,Sequence,PBM E-score
1,ACTGTAAG,0.0768
2,ACTTAAAT,0.212
3,CGCCCACC,-0.176
4,TCGTAGCA,0.0654
5,GTGTTAAC,0.122
6,TATAGTGA,0.144
7,GGAGAGAC,-0.0678
8,ATAAAGAT,0.212
9,GCCCTACA,-0.0157
10,ACTTAGAC,0.131
11,AGCTTGTA,0.156
12,ATGGGAAC,-0.123
13,ATTCCGAA,0.32
14,CCCTATCG,-0.263
15,ACTTAGTC,0.0758
16,CACGGAAC,0.114
17,GCATCTAA,0.0869
18,CGTATAGA,0.00324
19,AGAAAGGC,-0.0858
20,TCTAGCAA,0.14
21,CGTCCTTC,-0.0261
22,GGACACAA,0.163
23,CAGTCGCG,-0.189
24,ATAGCGGG,-0.124
25,CCTACCAC,-0.155

row,Sequence,PBM E-score
1,CATCATAG,0.087
2,ACGCAGTA,0.0216
3,CTCTGCTA,-0.239
4,CCGTGAGA,-0.363
5,GGATGTCA,0.109
6,ATGCTCAA,0.102
7,ATCACTGG,-0.0231
8,CACGTTTC,-0.222
9,ATCTTGCG,0.0267
10,ACTAGCAA,0.0128
11,CGTGGTGA,-0.128
12,CCACACAA,0.033
13,CATCCAGA,-0.00544
14,ACCCGATA,-0.132
15,AGCCCACT,-0.192
16,CGGCGCGA,0.0349
17,CCACGCCA,-0.123
18,GCTGGTAC,-0.187
19,ACGCGGAC,-0.195
20,CTTGTAGC,-0.0215
21,AGCCCCCT,-0.418
22,GTCGTAGA,0.029
23,ACGGTGCT,-0.196
24,CGGCAAGA,-0.0437
25,CCGGGTCG,-0.279

row,Sequence,PBM E-score
1,GGCACTAA,-0.0615
2,AGGATGAT,0.213
3,ACCGGATG,0.0683
4,GGCATCCC,-0.344
5,GGCTCAGA,0.0748
6,CGACGCGA,-0.0933
7,ACTTTGAT,0.084
8,GAGTGTTA,0.138
9,AAAGTACA,0.055
10,ACATCCAC,0.137
11,AGCCGTCC,-0.0864
12,GGTGCTGA,-0.181
13,AATGGTAC,0.145
14,AAAAATAG,0.296
15,CTATGCGC,0.0143
16,AGCTCCTA,-0.147
17,TCTGATCA,0.0867
18,GAGGGCTA,-0.222
19,GAGCATCA,-0.0851
20,TCTCGCAA,-0.0365
21,GCTTTTCC,-0.0473
22,CAACCTTC,-0.00721
23,AGTAAGCA,0.0587
24,ACAATCTA,0.151
25,GGGATGCA,-0.163

row,Sequence,PBM E-score
1,GCTTAGCC,-0.192
2,CATCTGGG,-0.0895
3,ACGGCTTA,0.017
4,CGCACACC,-0.0199
5,AACTAGAG,0.0385
6,TGACTGAA,-0.172
7,ATCTACCG,-0.0234
8,AGACACGA,-0.0115
9,ACTAGAGG,-0.155
10,ATCACTCA,0.146
11,GATCTAAA,0.053
12,GGGAGCGA,-0.261
13,GACTCGCC,-0.288
14,GATACTCA,0.118
15,CCGAGTGA,-0.017
16,ACAACACG,-0.133
17,TTAGGCAA,0.0136
18,CCATACGG,-0.148
19,AATTACAA,0.107
20,AGATTTAT,0.249
21,GGGGACGA,-0.0926
22,AACATAAA,0.11
23,GGCAAGCC,-0.303
24,AAACTTCT,0.281
25,AATTTGTG,0.254

row,Sequence,PBM E-score
1,AAGGACAA,0.021
2,AACGCACT,0.0537
3,CTGGGACA,-0.222
4,CCGGCTAA,-0.0556
5,GTAGCGCA,0.112
6,GCGTATTA,0.182
7,TAGCGCAA,0.153
8,ACGGTCTC,-0.152
9,AGTACGCC,-0.141
10,GGGTAGTA,-0.153
11,CACATCAG,-0.105
12,ATTAGTCG,0.0932
13,ACTCCCTA,0.0398
14,CGGCTTAG,-0.0372
15,CCTAACAC,0.151
16,GTCGTCGA,-0.0776
17,CACCCGAA,0.139
18,AATGCCGA,0.0273
19,AGCGCCGC,-0.328
20,ACGAAATG,0.0703
21,AGCAGAGA,-0.152
22,GGCGAAAA,0.171
23,GAAGTCCA,-0.108
24,CCATCGCG,0.114
25,GCATTTAA,0.117

row,Sequence,PBM E-score
1,CCGAGCAC,-0.0526
2,AGAAGGCA,-0.0967
3,TAACTATA,0.242
4,GCGGCAGC,-0.239
5,GCCCAGGA,-0.0995
6,AATCGAAT,0.151
7,GACTAGCA,-0.00618
8,CTTTAGAA,0.0277
9,ACGTAGGA,0.0553
10,ACGCTGTA,0.0471
11,CTATAATC,0.239
12,CTGCCGCA,-0.208
13,ATCCGACA,0.0298
14,CGTGACAG,-0.145
15,CACCACAC,0.0283
16,CAACATTG,0.0622
17,CCGAAGCA,0.0595
18,AGCGCGGG,-0.0708
19,ATCTGCAC,-0.162
20,GCTGGATA,0.142
21,CATGTAGA,0.123
22,GACTTTCC,0.0496
23,AGACGATG,-0.113
24,GATGCCAC,-0.0736
25,GGTGTATA,-0.146

row,Sequence,PBM E-score
1,ACCTTAAC,0.0325
2,AGTTTCGC,0.0944
3,AACCGTCC,-0.211
4,ATTAAGAG,0.163
5,ACCAGCCC,-0.049
6,CACTAGTA,0.0533
7,GACTTACA,0.011
8,GCGGTGCC,-0.403
9,GATGCCTA,-0.0483
10,CAGTGGGG,-0.256
11,GAGGAAAC,0.0646
12,TAAATCGA,0.187
13,ACCAGGCC,-0.119
14,CCCGCTAA,-0.192
15,ACCTATAA,0.0203
16,AACAGATA,0.096
17,ATCGAGTC,0.0943
18,CTGCTGTC,-0.046
19,GCGTCCTA,-0.287
20,CCCGGCCG,-0.279
21,CAAAGCCA,0.109
22,GGGTACCC,-0.44
23,CATACATC,0.137
24,CCCAGCAC,-0.195
25,AATACTGG,0.0445

row,Sequence,PBM E-score
1,CATATCAG,0.0658
2,GATTGCGA,0.0845
3,AGATTCTG,-0.0373
4,CGGTTGAC,0.0343
5,CGTAAAGA,-0.0435
6,CTGCTAGA,-0.0174
7,CAGACCCA,-0.203
8,ATACGGGA,0.0278
9,CGATTGAC,0.0187
10,CCTATATA,0.125
11,ACCCGACA,-0.0502
12,ACGCCAGA,-0.011
13,CAAGCTAA,-0.0334
14,AGACTCCG,-0.0353
15,CGCGGTGC,-0.269
16,AAACAGTG,0.103
17,ATCCACAT,0.224
18,AGGGGAGG,-0.0285
19,CAACTTCG,0.0356
20,AATATTTG,0.232
21,AGCGTCCA,-0.13
22,CTTCCTGA,0.281
23,GAATTAGC,0.041
24,AACACACA,0.178
25,TGCGCAAA,-0.00319

row,Sequence,PBM E-score
1,AAAGTAAT,0.203
2,AGAAGTAC,-0.085
3,GAGATCAC,-0.0288
4,TCACAGCA,0.0204
5,GTCGTGAA,-0.0309
6,TGCCAGCA,-0.023
7,GCGGTACC,-0.167
8,CTTGTTCA,-0.0165
9,ACAGTGGG,-0.021
10,AAAGTATA,0.249
11,CCGTACGG,-0.219
12,ATAACGAA,0.229
13,CAAGGTTA,0.0697
14,CAGACCAA,0.0179
15,ACCTCCGC,-0.243
16,CAAGCACA,-0.0197
17,AATAATTG,0.256
18,AGCGACCG,-0.0457
19,AACGGCGG,-0.302

# — the supplement of paper PMC3334620
